The supplement of paper PMC11417369
This is one part of the list.

Tested on: PfHDP1 homeodomain (GST-tagged)
Experiment: gcPBM binding intensity (ln(normalized median fluorescence intensity)); higher = stronger DNA binding
Summary of the method: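 Each value is the highest Masliner-normalised natural-log median intensity across replicate spots of either orientation of a probe. The probes were primer-extended double-stranded 36-bp intergenic genomic sequences on an Agilent 4 × 180k array, alongside negative controls, exposed for 1 h to GST-tagged P. falciparum DNA-binding domains expressed in E. coli. Bound protein was picked up with Alexa488 anti-GST antibody and scanned at 488 nm.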

Sequence	gcPBM binding intensity (ln)
TTTATAAAAATGAACACACACATATATATATATATA [CACACA_site3493]	9.37
AAATATTTATAGGTTTGTACTTATAAATAAAAAAAA [XGTACX_site7360]	6
AATATGAAAAGATGAACAACAAAATGGAGAACAATA [GTGCAC_negctrl_site612]	7.24
ATTTTTTTTTTTTTTTTTTTTTTTTATGAATGTTAT [CACACA_negctrl_site1319]	5.88
ATCAGGCAAAATTTTTGTACATATATATTTTATTTT [XGTACX_site1245]	7.34
ATTTTTTTTTTTTTTTTTTTTTTTTTTTTTTTTTTT [CACACA_negctrl_site1364]	7.45
AGATTTCAAGGTAATAGATCAATTTTAATTTGTAAA [CACACA_negctrl_site514]	5.98
AATTTTTTTTTCTTTTGTACGTAAATATGTGTAGGC [XGTACX_site215]	6.8
CTAATAAAAAAAAAAAGTACATATGACAATATAAAG [XGTACX_site1598]	6.79
TTAAAATGAAGAAGTGCACACATATATATATTTATA [CACACA_site8063]	9.14
TTAACACATTTTATGTGTACTCATATGATTTAAAAT [XGTACX_site7516]	6.56
TATAAACAGACGAAAACACACATATGTAGATATATA [CACACA_site6371]	7.13
TATATATTAGTGTTGACACACACAAAAAAAAAAAAA [CACACA_site8392]	6.43
TATATATATATAATAGCATGCTATATTATATATATA [TGCATGCA_site886]	8.41
TATTCTTATTATTACACACACAATTATATTTACCCC [CACACA_site6381]	7.35
TTAACATAAATTGTGTCATTTTTTTTTTTTTTTTTA [CACACA_negctrl_site1221]	5.81
TATTTTTTAATTGTTTCACACATTATTTTTTACATA [CACACA_site6078]	6.41
ATAATATATATATATATGTATGTATATATGTATGTA [GTGCAC_negctrl_site575]	6.49
ATGAACATGTGACAATGTACATTTATATCTTAAGAA [XGTACX_site4960]	6.73

Sequence	gcPBM binding intensity (ln)
TACACCCAGAAATGCACACACATATATATATATATA [CACACA_site5289]	10.3
TATTCATGCATATACACACACATATATATATATTTT [CACACA_site3955]	7.44
AATGAAAAATTGTAATGTACATAAATAAATAAATAA [XGTACX_site4048]	6.94
ATCATAATTTATTATACACACAATACGTGACCTATT [CACACA_site6977]	6.79
AAAAAAAAATTAAACATACACACGTTACTATTTTTA [CACACA_site1687]	6.29
TTTTATATAAATATCACACACACACGCATGTTTTAA [CACACA_site6187]	6.71
TACAATATACCTACTTGTACACAAAATAAAAGTAGT [XGTACX_site6029]	6.3
TACACACCTAACTATGCATGCATCAATATAGTGGAT [TGCATGCA_site443]	6.55
AAAAAAAGTAAAAAGTGTACTTAATATATATATATA [XGTACX_site838]	9.15
TGTAGCATTTAATTCACACATAAAAAATGTATCCAT [CACACA_site4986]	6.5
TATATGTGATAACACGCACACAAATGTATATAATTT [CACACA_site2593]	6.97
ATAAAATAAAAATTCTGTACAGAATTAAAAAAATAT [XGTACX_site6961]	6.7
AAAAAAAAAAAACATACACACATTGAACTTTTATAT [CACACA_site3250]	6.42
TATTAATTTATTTGTTGTACGTAAATATGCTTGTTT [XGTACX_site6591]	6.36
AAAAAAAAAAAAAATTGTACCCAAATATTTTTGTAG [XGTACX_site8303]	6.15
ATATATATATTTAAGGTGCGATTTTGTTATATTTAA	7.89
TTTTTATTAGGACATGCATACAAAATTAAAAAAAAT [TGCATGCA_site258]	6.76
CTTATTTTATGTTATACACACAAAGAAAAAAAATAA [CACACA_site2165]	6.74
TTATGTATATTATAAATTAATACATTTAAATTAATA [CACACA_negctrl_site34]	5.93

Sequence	gcPBM binding intensity (ln)
TTATTAAAATATTAAAGTACAAAAAAAATAAATAAA [XGTACX_site6507]	6.47
GTATATAATTTATGTGCACACACTCCTATTTTTAGC [CACACA_site49]	11.1
AATTATATTAATATATAATAAAATAGGATGTTATTT [XGTACX_negctrl_site309]	6.13
TAACACTTTTTTTTTCGTACATATATTATATATATA [XGTACX_site5470]	6.98
AAATAGACATAAAAAGGTACACAAATTGTGTATTAA [XGTACX_site527]	7.23
TTTTTTTATATTATACGCACTAATATATATATATAT [XGTACX_negctrl_site40]	8.78
GACATATATAGCAATCGTACATATATTATAAAAGGT [XGTACX_site6891]	7.57
TTTAATTTTCCCTTCACACATAATATATATCTGTAT [CACACA_site5370]	6.95
CGTTTGGTACACGTAGTGTTTTCGTTTGAATGTACC [GTGCAC_negctrl_site201]	6.39
AAAAGGAACAGACACACACACATATATAAATATGTA [CACACA_site7656]	6.72
TTTAAATATTTTATAGCATGCTACCAATATGTATAT [TGCATGCA_site291]	6.89
AAGAACAAACAAAATAGTACAATATATATATATATA [XGTACX_site4258]	9.12
CATATATAGATATATACACACATATAGATTTTCTTT [CACACA_site6797]	6.52
TATTCATAACAATGATGTACATATATTTTTTTTTTC [XGTACX_site5619]	6.47
AACTATAATTAAAGGATGCACTTGAAGGCATTTCAA [GTGCAC_site9689]	6.72
TTACTTGTTTATTTTTTTTTTTTTTTTTTTTTTGTT [TGCATGCA_negctrl_site103]	5.62
TAATGGAGAAAATAATGTACTTAGATATTTGTTCTA [XGTACX_site6312]	6.01
AAAAATTAGAAACACACACACATATATATATATATT [CACACA_site1042]	6.74
